The results in this text go back to ChEMBL document CHEMBL4888484, “Replenishing the malaria drug discovery pipeline: Screening and hit evaluation of the MMV Hit Generation Library 1 (HGL1) against asexual blood stage Plasmodium falciparum ,using a nano luciferase reporter read-out” (2022).

The campaign covered roughly 150,000 compounds. About 540 (0.36%) showed an effect of 50% or more. This is one part of the list.

The test system of this assay is Plasmodium falciparum. Nature of the assay: Primary screen in NF54 nanoGlo assay, in single point, at 2uM, 72h; a lower Z score goes with more inhibition. Format: functional, Erythrocyte. The following applies: timepoint 72 hour.
In general, % Inhibition refers to the relative decrease from the control value, in per cent. For `Cc1cc(=O)n2nc(C(=O)N3CCCC3)nc2[nH]1`, the “% Inhibition” value was determined as 26% and the Z score is given as -2.99.

Regarding `CCOc1cccc(CN=C(NC)NC2CC2)c1OC(F)F`, the “% Inhibition” value worked out at 3% and the Z score is -0.43.

Consider `COC(=O)N1CC[C@H](Nc2nccc(C(F)(F)F)n2)C1`, for which the “% Inhibition” value was -9% and the Z score stood at 1.09.

`Cc1cc(C)cc(NC(=O)Cn2ccc3ccc(-c4nnc(C)o4)cc32)c1`: the “% Inhibition” value turned out to be 2% and the Z score is -0.2.

In the case of `CC(C)n1cc(CNc2cc(Br)cn(C)c2=O)cn1`, the “% Inhibition” value is recorded as -7% and the Z score is recorded as 1.19.

With `CCc1oc(C(=O)NCCOC(N)=O)cc1C`, the “% Inhibition” value is reported as -5% and the Z score is 0.49.

Take `COc1cc(-c2nnc3n2CC(C)(C)CN3)cc(OC)c1OC`: the “% Inhibition” value is listed as 31% and the Z score is -0.1.

For the compound `CC(C)(C)OC(=O)N[C@@H]1CCCCC[C@H]1NC(=O)CNC(=O)NC1CC1`, the “% Inhibition” value amounted to 34% and the Z score was -3.79.

For the compound `CC(C)Cc1cc(C(=O)NC[C@H](C)N2CCN(C)CC2)cc(O)n1`, the “% Inhibition” value is -11% and the Z score was 1.47.

As to `CN1C(=O)[C@@H](c2ccccc2)CC12CCN(C(=O)c1ccc(F)cc1)CC2`, the “% Inhibition” value is recorded as -9% and the Z score is on record as 1.81.

On to `Cn1ccc(NC(=O)Nc2nc(C3CCC3)cs2)n1`, for which the “% Inhibition” value is recorded as -13% and the Z score was found to be 1.25.

Regarding `CCc1ccc(N2C(O)=Nc3ccccc3S2(=O)=O)cc1`, the “% Inhibition” value is recorded as -7% and the Z score was found to be 1.11.

Regarding `CC1CC1C(=O)NC1CCC(CN(C)C(=O)C2CC2C)CC1` (stereo unspecified), the “% Inhibition” value was 2% and the Z score is given as -0.41.

For the compound `COc1cccc(-c2ncc(CN3C[C@@H](CN4CCOCC4)[C@@H](CO)C3)s2)c1`, the “% Inhibition” value is on record as -1% and the Z score is 0.27.

Turning to `Cc1ccc(Oc2ncccc2CNC(=O)c2ccc(C)nc2O)cn1`, the “% Inhibition” value amounted to 2% and the Z score is on record as -0.2.

In the case of `CS(=O)(=O)C1(CNC(=O)[C@@H]2CCCN2C2CC2)CC1`, the “% Inhibition” value was -6% and the Z score is recorded as 0.93.

In the case of `CC(C)NC(=O)c1cccn(-c2ccc(NC(=O)c3ccc(Br)cc3)cc2)c1=O`, the “% Inhibition” value was determined as 10% and the Z score is listed as -1.38.

On to `Cc1nc(NCc2c(C)noc2C)n(C)n1`, for which the “% Inhibition” value is on record as -4% and the Z score was determined as 0.61.

For the compound `O=C(c1ccccc1-c1nnn[nH]1)N1C[C@@H]2CC[C@H]1CN(c1ncccn1)C2`, the “% Inhibition” value is on record as -11% and the Z score is recorded as 1.77.

Take `CCn1c2ccccc2c2cc(-c3nccn3C(CO)CO)ccc21`: the “% Inhibition” value worked out at 8% and the Z score is reported as -1.3.

As to `O=C(NCc1csc(NC(=O)C2CCC2)n1)C1CCC1`, the “% Inhibition” value was -1% and the Z score amounted to 0.16.

Turning to `Cc1nc(C)c(C(=O)N[C@H]2CCOC[C@@H]2OCc2cscn2)s1`, the “% Inhibition” value was found to be 1% and the Z score is reported as -0.1.

For the compound `C[C@@H](C(=O)NCc1ccc2c(c1)OCO2)n1cncn1`, the “% Inhibition” value is given as -1% and the Z score is given as 0.16.

For the compound `Fc1ccc(F)c(-c2nc(-c3ccc4nncn4c3)no2)c1`, the “% Inhibition” value was -14% and the Z score stood at 2.38.

In the case of `CCc1ncc2c(n1)CN(C(=O)c1cnc(C(C)C)nc1C)C2`, the “% Inhibition” value is 0% and the Z score is -0.05.

For `CC(C)C[C@@H](C#N)NC(=O)Cc1ccc(F)cc1`, the “% Inhibition” value was -4% and the Z score was found to be 0.74.

For the compound `CN(C)C(=O)c1cc2c(n1C)CN(C(=O)[C@H]1CC(=O)N(C3CCCC3)C1)CC2`, the “% Inhibition” value is 14% and the Z score is recorded as -1.92.

`COC(=O)c1cc(C2CC2)nc2c1c(=O)n(Cc1cccc(OC)c1)c(=O)n2-c1ccccc1`: the “% Inhibition” value is given as -16% and the Z score was found to be 2.05.

For the compound `CC(=O)c1cccc(NC(=O)O[C@@H]2CO[C@H]3[C@@H]2OC[C@@H]3Nc2nccc(C3CCCC3)n2)c1`, the “% Inhibition” value is 35% and the Z score is reported as -3.91.

Take `COc1ccc(NC(=O)[C@H](Oc2ccc(OC)cc2)c2ccccc2)cc1`: the “% Inhibition” value is given as 2% and the Z score is reported as -0.29.

As for `Clc1cc2c(c(CN3CCC4(CC3)OCCO4)c1)OCOC2`, the “% Inhibition” value is recorded as -8% and the Z score was 1.46.

For the compound `O=C(COc1ccccc1)N1C[C@@H]2OCC(=O)N(Cc3ccc(F)cc3)[C@@H]2C1`, the “% Inhibition” value is -10% and the Z score worked out at 1.26.

With `O=C(NCc1cccc(C(F)(F)F)c1)c1ccc(Oc2nccnc2N2CCOCC2)cc1`, the “% Inhibition” value was determined as 7% and the Z score was -1.05.

Regarding `CCNC(=O)C(=O)NC[C@](C)(O)c1cc2ccccc2o1`, the “% Inhibition” value was -12% and the Z score was 1.57.

As for `O=C(NCc1cncc(-c2ccsc2)c1)c1ccc(Cl)s1`, the “% Inhibition” value is reported as -17% and the Z score is 2.61.

As for `COc1cc(Cl)c(Cl)cc1NCc1ncc(C)o1`, the “% Inhibition” value is listed as -3% and the Z score was determined as 0.28.

`CCOC(=O)c1cn(Cc2nnc(C(C)C)o2)nc1C(F)(F)F`: the “% Inhibition” value is -8% and the Z score amounted to 1.09.

In the case of `O=C(c1ccc(Cl)cc1)N1CCn2nccc2C1`, the “% Inhibition” value is listed as -11% and the Z score turned out to be 1.3.

As to `CC(C)Cc1cnc(NC(=O)NC(C)C(C)CO)s1` (stereo unspecified), the “% Inhibition” value is given as 12% and the Z score was -1.1.

As to `CCN1CC(=O)N[C@H]2CN(C(=O)C3CCOCC3)CC[C@@H]2OCc2cccc(c2)Oc2cccc(c2)CC1=O`, the “% Inhibition” value was 28% and the Z score is given as -3.83.

Regarding `Cc1cccc(F)c1C(=O)N1CCN(C2CCCCC2)C(=O)C1`, the “% Inhibition” value is reported as -6% and the Z score came to 0.78.

Consider `COc1ccc(-c2nn(-c3ccccc3C)cc2CN(C)Cc2cn(C)nc2C)cc1F`, for which the “% Inhibition” value is -5% and the Z score is reported as 0.6.

`Cc1nc2n(n1)C[C@@H](Nc1ncnc3sccc13)CC2`: the “% Inhibition” value is reported as -7% and the Z score came to 1.46.
